# Counter-ions that a name gives are not always drawn. ± gives the standard error. In all, about 1,300 compounds went through this assay and about 130 (10%) showed an effect of 50% or more. The list shows a part of the results, in another mix than the full data.
# Tested on: Trichoderma virens ATCC 9645
# Assay: growth yield (OD600) with compound + IPBC relative to untreated control; higher = less growth inhibition
# Conditions: compound concentration: 100 uM, IPBC concentration: 200 ng/ml
# In short: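 Plates were read for OD600 at 40 h and 72 h after Trichoderma virens ATCC 9645 spores (15,000 spores ml^−1 in potato dextrose broth) were grown at 30 °C with library compounds at 100 μM final, with or without a biocide at 200 ng ml^−1. Growth is stated relative to the control with neither agent, as the mean of duplicate screens.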
Structure (SMILES),growth yield (40 h) [%],growth yield (72 h) [%]
O=C(CCCN1CCC(O)(c2ccc(Cl)cc2)CC1)c1ccc(F)cc1 [Haloperidol] + CCCCNC(=O)OCC#CI [3-iodo-2-propynyl butylcarbamate (IPBC)],10.2 ± 1.9,–
COc1ccc2c(c1)C(=O)N(CCc1ccc(S(=O)(=O)NC(=O)NC3CCCCC3)cc1)C(=O)C2(C)C [Gliquidone] + CCCCNC(=O)OCC#CI [3-iodo-2-propynyl butylcarbamate (IPBC)],115 ± 3,111 ± 2.5
NS(=O)(=O)Cc1noc2ccccc12 [Zonisamide] + CCCCNC(=O)OCC#CI [3-iodo-2-propynyl butylcarbamate (IPBC)],91.49 ± 0.64,92.7 ± 2.7
"Cc1cn([C@H]2C[C@H](N=[N+]=[N-])[C@@H](CO)O2)c(=O)[nH]c1=O [Zidovudine, AZT] + CCCCNC(=O)OCC#CI [3-iodo-2-propynyl butylcarbamate (IPBC)]",91.3 ± 6.5,96.4 ± 3.5
CC(C[N+](C)(C)C)OC(N)=O (stereo not given) [Bethanechol chloride] + CCCCNC(=O)OCC#CI [3-iodo-2-propynyl butylcarbamate (IPBC)],87 ± 3.2,90.2 ± 1.5
Cc1cc(C(C#N)c2ccc(Cl)cc2)c(Cl)cc1NC(=O)c1cc(I)cc(I)c1O (stereo not given) [Closantel] + CCCCNC(=O)OCC#CI [3-iodo-2-propynyl butylcarbamate (IPBC)],102 ± 2.7,101 ± 0.94
NCCc1cc[nH]n1 [Betazole hydrochloride] + CCCCNC(=O)OCC#CI [3-iodo-2-propynyl butylcarbamate (IPBC)],88.5 ± 1.8,91.03 ± 0.42
CCCNC(C)C(=O)Nc1c(C)csc1C(=O)OC (stereo not given) [Articaine hydrochloride] + CCCCNC(=O)OCC#CI [3-iodo-2-propynyl butylcarbamate (IPBC)],100 ± 14,99.1 ± 7.9
COc1cccc(N(C)C(=S)Oc2ccc3c(c2)CCCC3)n1 [Liranaftate] + CCCCNC(=O)OCC#CI [3-iodo-2-propynyl butylcarbamate (IPBC)],0,0
C[C@@H]1C[C@@H]([C@H](O)CC2CC(=O)NC(=O)C2)C(=O)[C@@H](C)C1 [Cycloheximide] + CCCCNC(=O)OCC#CI [3-iodo-2-propynyl butylcarbamate (IPBC)],34.3 ± 2.9,–
CC(C)Cn1cnc2c(N)nc3ccccc3c21 [Imiquimod] + CCCCNC(=O)OCC#CI [3-iodo-2-propynyl butylcarbamate (IPBC)],82.6,99.2 ± 14
NC(=O)N1c2ccccc2CC(=O)c2ccccc21 [Oxcarbazepine] + CCCCNC(=O)OCC#CI [3-iodo-2-propynyl butylcarbamate (IPBC)],83.4 ± 2.4,92.9 ± 1.9
CC1(C)O[C@@H]2[C@@H](CO[C@@]3(COS(N)(=O)=O)OC(C)(C)O[C@@H]23)O1 [Topiramate] + CCCCNC(=O)OCC#CI [3-iodo-2-propynyl butylcarbamate (IPBC)],89 ± 5.1,93.1 ± 5.9
CC[N+](CC)(CC(=O)Nc1c(C)cccc1C)Cc1ccccc1 [Denatonium benzoate] + CCCCNC(=O)OCC#CI [3-iodo-2-propynyl butylcarbamate (IPBC)],101.7 ± 0.64,106 ± 1.4
COc1cc(NS(=O)(=O)c2ccc(N)cc2)nc(OC)n1 [Sulfadimethoxine] + CCCCNC(=O)OCC#CI [3-iodo-2-propynyl butylcarbamate (IPBC)],116.3 ± 0.95,114 ± 1.6
O=c1[nH]oc2c1CCNC2 [THIP Hydrochloride] + CCCCNC(=O)OCC#CI [3-iodo-2-propynyl butylcarbamate (IPBC)],98.6 ± 7.5,96.9 ± 3.4
CN(C)c1cc(NC(=O)CNC(C)(C)C)c(O)c2c1C[C@H]1C[C@H]3[C@H](N(C)C)C(O)=C(C(N)=O)C(=O)[C@@]3(O)C(O)=C1C2=O [Tigecycline] + CCCCNC(=O)OCC#CI [3-iodo-2-propynyl butylcarbamate (IPBC)],80.7 ± 3.5,79 ± 2
CN(Cc1ccc(C(C)(C)C)cc1)Cc1cccc2ccccc12 [Butenafine Hydrochloride] + CCCCNC(=O)OCC#CI [3-iodo-2-propynyl butylcarbamate (IPBC)],4.13,2.73
CC(=O)CC(c1ccc([N+](=O)[O-])cc1)c1c(O)c2ccccc2oc1=O (stereo not given) [Acenocoumarol] + CCCCNC(=O)OCC#CI [3-iodo-2-propynyl butylcarbamate (IPBC)],76.6 ± 1.3,89.04 ± 0.32
CCCCCCCCNC(C)C(O)c1ccc(SC(C)C)cc1 (stereo not given) [Suloctidil] + CCCCNC(=O)OCC#CI [3-iodo-2-propynyl butylcarbamate (IPBC)],5.08 ± 0.32,33.1 ± 2.5
S=c1[nH]cnc2nc[nH]c12 [Mercaptopurine] + CCCCNC(=O)OCC#CI [3-iodo-2-propynyl butylcarbamate (IPBC)],78.785 ± 1e-14,87.47 ± 0.63
COc1ccc2c3c1O[C@H]1C[C@@H](O)C=C[C@@]31CCN(C)C2 [Galanthamine hydrobromide] + CCCCNC(=O)OCC#CI [3-iodo-2-propynyl butylcarbamate (IPBC)],88 ± 1.9,89.98 ± 0.21
Cc1nnc(SCC2=C(C(=O)O)N3C(=O)[C@@H](NC(=O)Cn4cnnn4)[C@H]3SC2)s1 [Cefazolin sodium salt] + CCCCNC(=O)OCC#CI [3-iodo-2-propynyl butylcarbamate (IPBC)],97.2,117 ± 18
NCC1(CC(=O)O)CCCCC1 [Gabapentin] + CCCCNC(=O)OCC#CI [3-iodo-2-propynyl butylcarbamate (IPBC)],94.5 ± 7.8,93 ± 2.6
Cc1cccc(C)c1NC(=O)CN1CCN(CCCC(c2ccc(F)cc2)c2ccc(F)cc2)CC1 [Lidoflazine] + CCCCNC(=O)OCC#CI [3-iodo-2-propynyl butylcarbamate (IPBC)],10.3 ± 1.1,78.6 ± 7.7
CC(=O)O[C@]1(C(C)=O)CC[C@H]2[C@@H]3C=C(C)C4=CC(=O)CC[C@]4(C)[C@H]3CC[C@@]21C [Megestrol acetate] + CCCCNC(=O)OCC#CI [3-iodo-2-propynyl butylcarbamate (IPBC)],95.9 ± 4.8,100 ± 2.7
